The list shows a part of the results. The energies were worked out here from pooled read counts, against the library average; single values are noisy.

The target in this assay is T1, Pho4 (S. cerevisiae) (UniProt P07270).
T1 sequence: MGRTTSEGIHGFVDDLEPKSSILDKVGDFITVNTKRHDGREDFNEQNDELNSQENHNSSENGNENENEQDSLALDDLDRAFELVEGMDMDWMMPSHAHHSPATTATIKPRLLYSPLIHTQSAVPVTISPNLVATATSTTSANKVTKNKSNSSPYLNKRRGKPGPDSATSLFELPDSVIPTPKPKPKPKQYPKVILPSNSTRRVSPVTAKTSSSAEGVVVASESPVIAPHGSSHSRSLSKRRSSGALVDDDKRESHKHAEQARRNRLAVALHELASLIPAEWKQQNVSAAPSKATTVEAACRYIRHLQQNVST
The assay can be described thus: relative binding free energy (BET-seq); higher = weaker binding. The following applies: reference: library average.
Regarding CAGTGCACGTGCAGGT, the “relative binding free energy” value was -0.14 kcal/mol.

For AAATGCACGTGTAGGG, the “relative binding free energy” value is -0.03 kcal/mol.

Consider AAGGTCACGTGGTTGT, for which the “relative binding free energy” value stood at 0.11 kcal/mol.

With GTTGCCACGTGTTTGA, the “relative binding free energy” value was 0.04 kcal/mol.

For TTTTTCACGTGACTCT, the “relative binding free energy” value was found to be 0.32 kcal/mol.

Consider GGCGACACGTGGTTCG, for which the “relative binding free energy” value was 0.07 kcal/mol.

With TAAGGCACGTGTGAGT, the “relative binding free energy” value was -0.07 kcal/mol.

On to TCTGTCACGTGGAGGA, for which the “relative binding free energy” value was determined as 0.15 kcal/mol.

As for TATATCACGTGTAGGA, the “relative binding free energy” value worked out at 0.1 kcal/mol.

Regarding GTCGGCACGTGGAGCG, the “relative binding free energy” value is -0.04 kcal/mol.

For CGGTACACGTGGATAG, the “relative binding free energy” value came out at 0.2 kcal/mol.

As to GGGCGCACGTGTCGTG, the “relative binding free energy” value is -0.13 kcal/mol.

Regarding GATATCACGTGGTAGA, the “relative binding free energy” value was found to be 0.19 kcal/mol.

As to TTTTGCACGTGAATAG, the “relative binding free energy” value was found to be 0.27 kcal/mol.

As for CTGCACACGTGTGGTG, the “relative binding free energy” value was 0.04 kcal/mol.

Take CGAATCACGTGTAGTG: the “relative binding free energy” value turned out to be 0.11 kcal/mol.

Regarding GAGGTCACGTGGGGTT, the “relative binding free energy” value is 0.07 kcal/mol.

Take AGTATCACGTGAGGGT: the “relative binding free energy” value came out at 0.35 kcal/mol.

Take TGCAGCACGTGTATGG: the “relative binding free energy” value was determined as 0 kcal/mol.

For GGTAACACGTGGTAGT, the “relative binding free energy” value stood at 0.02 kcal/mol.

For GGCTACACGTGGGGGA, the “relative binding free energy” value came out at 0.06 kcal/mol.

For ATATCCACGTGGTTTG, the “relative binding free energy” value turned out to be 0.06 kcal/mol.

For CTAGGCACGTGTCGGG, the “relative binding free energy” value is -0.03 kcal/mol.

Take TTTGTCACGTGTAGAA: the “relative binding free energy” value came to 0.12 kcal/mol.

As for TATGCCACGTGTGTAT, the “relative binding free energy” value is -0.14 kcal/mol.

Take TTTAGCACGTGAAGGA: the “relative binding free energy” value came out at 0.15 kcal/mol.

Regarding GGGTACACGTGGGACT, the “relative binding free energy” value stood at 0.17 kcal/mol.

Take TCTAGCACGTGTGGTC: the “relative binding free energy” value is 0.11 kcal/mol.

Turning to GTACACACGTGGTGGG, the “relative binding free energy” value was -0.1 kcal/mol.

With GTGTACACGTGGGCAT, the “relative binding free energy” value is -0.14 kcal/mol.

On to TGGATCACGTGAATGG, for which the “relative binding free energy” value stood at 0.4 kcal/mol.

For the sequence CTATGCACGTGTAGTG, the “relative binding free energy” value was -0.01 kcal/mol.

For the sequence TTGAGCACGTGAGGAA, the “relative binding free energy” value worked out at 0.01 kcal/mol.

For CTTTACACGTGTCGGG, the “relative binding free energy” value is 0.18 kcal/mol.

Turning to ATAAGCACGTGATTTG, the “relative binding free energy” value came to 0.07 kcal/mol.

Regarding AGGCTCACGTGAGATT, the “relative binding free energy” value came out at 0.53 kcal/mol.

TCCATCACGTGGGTGT: the “relative binding free energy” value came out at 0.06 kcal/mol.

For the sequence GTGGGCACGTGGCATT, the “relative binding free energy” value is -0.15 kcal/mol.

Consider GGGGTCACGTGGGAAT, for which the “relative binding free energy” value came out at 0.2 kcal/mol.

For GGGTCCACGTGATTTA, the “relative binding free energy” value amounted to 0.22 kcal/mol.

With ACGGGCACGTGGAGCG, the “relative binding free energy” value was -0.23 kcal/mol.

Regarding AGAGACACGTGGGTAT, the “relative binding free energy” value is -0.1 kcal/mol.

With GGTGCCACGTGAGGAT, the “relative binding free energy” value was 0.27 kcal/mol.

As for TCTTGCACGTGAGGTG, the “relative binding free energy” value is 0.12 kcal/mol.

For AGTCACACGTGTTGAA, the “relative binding free energy” value is 0.18 kcal/mol.

Consider AGAAGCACGTGGTATG, for which the “relative binding free energy” value is -0.25 kcal/mol.

As to GGAAGCACGTGTGGTA, the “relative binding free energy” value is -0.08 kcal/mol.

GTAGACACGTGAGTGT: the “relative binding free energy” value came to 0.09 kcal/mol.

On to AGCGACACGTGGGGCT, for which the “relative binding free energy” value was -0.09 kcal/mol.

As to AGTATCACGTGTTGAC, the “relative binding free energy” value turned out to be 0.25 kcal/mol.

With AGGGGCACGTGTCAGG, the “relative binding free energy” value is -0.12 kcal/mol.

For the sequence TGAGGCACGTGCGTAT, the “relative binding free energy” value was -0.16 kcal/mol.

With TGAAACACGTGGGGTG, the “relative binding free energy” value is -0.02 kcal/mol.

On to GTTTGCACGTGAGTGG, for which the “relative binding free energy” value worked out at 0.18 kcal/mol.

As to TCTTGCACGTGGAGGA, the “relative binding free energy” value is -0.05 kcal/mol.

With GAAGGCACGTGCAGGT, the “relative binding free energy” value was -0.05 kcal/mol.

GCTGGCACGTGCGGGT: the “relative binding free energy” value is -0.1 kcal/mol.

For the sequence GTTATCACGTGGGTCC, the “relative binding free energy” value came out at 0.02 kcal/mol.

In the case of AGTTGCACGTGCTATT, the “relative binding free energy” value was -0.04 kcal/mol.

As to CAGGTCACGTGTAGTT, the “relative binding free energy” value is 0.19 kcal/mol.

For the sequence GATGGCACGTGGAATG, the “relative binding free energy” value came to 0.04 kcal/mol.

For GCGTGCACGTGGCATG, the “relative binding free energy” value is -0.1 kcal/mol.

As for GTGTCCACGTGTGGGG, the “relative binding free energy” value was found to be 0.18 kcal/mol.

For GTCGACACGTGGAAGG, the “relative binding free energy” value was 0.17 kcal/mol.

Regarding TAGATCACGTGGTGAT, the “relative binding free energy” value stood at 0.04 kcal/mol.

For the sequence CGTAGCACGTGGGTGA, the “relative binding free energy” value is -0.25 kcal/mol.

As to TTAAACACGTGTTATT, the “relative binding free energy” value is 0.09 kcal/mol.

For GTGTTCACGTGCTATT, the “relative binding free energy” value turned out to be 0.28 kcal/mol.

For AAGATCACGTGTATTT, the “relative binding free energy” value turned out to be 0.19 kcal/mol.

In the case of GTGAGCACGTGGTGGC, the “relative binding free energy” value is -0.13 kcal/mol.

On to GGGTGCACGTGATTTA, for which the “relative binding free energy” value is 0.2 kcal/mol.

With AGTCTCACGTGAAGGA, the “relative binding free energy” value amounted to 0.35 kcal/mol.

Turning to GTGAACACGTGTCGTG, the “relative binding free energy” value is 0.07 kcal/mol.

Turning to GAGCGCACGTGAGGGC, the “relative binding free energy” value is 0.32 kcal/mol.

Take AGCATCACGTGTGTAT: the “relative binding free energy” value was 0.17 kcal/mol.

For the sequence TATGGCACGTGCGTAG, the “relative binding free energy” value is -0.22 kcal/mol.

Take GTGTGCACGTGCGGGG: the “relative binding free energy” value was -0.02 kcal/mol.

In the case of TTTGTCACGTGGCGCC, the “relative binding free energy” value was found to be 0.27 kcal/mol.

Take ATGGTCACGTGATTGC: the “relative binding free energy” value was 0.19 kcal/mol.

Take TAAATCACGTGGTATT: the “relative binding free energy” value worked out at 0.11 kcal/mol.

In the case of AAATGCACGTGAGGCT, the “relative binding free energy” value was determined as 0.31 kcal/mol.

GCGAGCACGTGTGGTA: the “relative binding free energy” value came out at 0.01 kcal/mol.

Turning to GTTGACACGTGGGACG, the “relative binding free energy” value was -0.03 kcal/mol.

CAGAGCACGTGGGTCG: the “relative binding free energy” value was -0.08 kcal/mol.

With TGTCGCACGTGGCGGT, the “relative binding free energy” value was -0.21 kcal/mol.

Turning to AAGTACACGTGTTTGG, the “relative binding free energy” value is 0.11 kcal/mol.

Turning to TATATCACGTGGAAGG, the “relative binding free energy” value was determined as 0.28 kcal/mol.

As for AATGACACGTGGAGTT, the “relative binding free energy” value is -0.01 kcal/mol.

Take GTTTGCACGTGGGGAC: the “relative binding free energy” value was -0.23 kcal/mol.

As to GGTATCACGTGTTAGC, the “relative binding free energy” value came to 0.11 kcal/mol.

Take TGCGGCACGTGCTGTT: the “relative binding free energy” value is -0.22 kcal/mol.

As for AAGTGCACGTGAGATT, the “relative binding free energy” value came out at 0.14 kcal/mol.

For the sequence ATATTCACGTGGAATA, the “relative binding free energy” value amounted to 0.25 kcal/mol.

ATCGTCACGTGCAGTG: the “relative binding free energy” value came to 0.21 kcal/mol.

Regarding GCGTGCACGTGTTTTT, the “relative binding free energy” value was 0.08 kcal/mol.

Turning to GGTTCCACGTGGAAGT, the “relative binding free energy” value was determined as 0.2 kcal/mol.

Take AATTACACGTGGGAGT: the “relative binding free energy” value turned out to be 0.07 kcal/mol.

For GTGATCACGTGAGCGT, the “relative binding free energy” value amounted to 0.24 kcal/mol.

With CGCGGCACGTGGTGCG, the “relative binding free energy” value is -0.23 kcal/mol.

On to ATGGTCACGTGCATAT, for which the “relative binding free energy” value was determined as 0.03 kcal/mol.

As to GGGCGCACGTGGGGCT, the “relative binding free energy” value is -0.18 kcal/mol.

For the sequence ATTGGCACGTGAGTTT, the “relative binding free energy” value came out at 0.06 kcal/mol.

With TTCTGCACGTGGGATT, the “relative binding free energy” value is -0.16 kcal/mol.

For CTGATCACGTGCGTGT, the “relative binding free energy” value was determined as 0.08 kcal/mol.

With GTCGTCACGTGATAGG, the “relative binding free energy” value came to 0.21 kcal/mol.

As to TTGTTCACGTGCACTT, the “relative binding free energy” value was 0.16 kcal/mol.

As to ATCAGCACGTGTGGGC, the “relative binding free energy” value turned out to be 0.1 kcal/mol.

As to AAGGGCACGTGGACAG, the “relative binding free energy” value was -0.1 kcal/mol.

Turning to TGTATCACGTGACTGG, the “relative binding free energy” value stood at 0.34 kcal/mol.

Consider GGTCCCACGTGGGTGT, for which the “relative binding free energy” value was -0.24 kcal/mol.

As for GTCTGCACGTGGATGG, the “relative binding free energy” value was 0.02 kcal/mol.

As for TAGTTCACGTGTTAGC, the “relative binding free energy” value was determined as 0.36 kcal/mol.

Regarding GCTTACACGTGGGGCG, the “relative binding free energy” value came out at 0.02 kcal/mol.

For the sequence TAGCTCACGTGTTTGG, the “relative binding free energy” value is 0.29 kcal/mol.

GTGTGCACGTGCGGTT: the “relative binding free energy” value came out at 0.11 kcal/mol.

These data come from the BET-seq Pho4 binding data (Le et al. 2018).
